In patent US20250243260A1 (ALPINE IMMUNE SCIENCES, published 2025):
Where a chain is given by its changes, count along the chain named. Names and notes keep the numbering of the source. Blank lines part the entries; values can stand above or below the binder they belong to.

Columns and labels:
[1] = molecular target: T1, rhu PD-L1 (human, UniProt Q9NZQ7 fragment, limits assumed); assay: SPR (Biacore), captured CD80-Fc, PD-L1 analyte
T1 construct: also called PD-L1 (SPR analyte)

[2] = molecular target: T1, rhu PD-L1; assay: SPR, rhu PD-L1 analyte, 1:1 model
T1 sequence (Q9NZQ7 19-238 limits assumed): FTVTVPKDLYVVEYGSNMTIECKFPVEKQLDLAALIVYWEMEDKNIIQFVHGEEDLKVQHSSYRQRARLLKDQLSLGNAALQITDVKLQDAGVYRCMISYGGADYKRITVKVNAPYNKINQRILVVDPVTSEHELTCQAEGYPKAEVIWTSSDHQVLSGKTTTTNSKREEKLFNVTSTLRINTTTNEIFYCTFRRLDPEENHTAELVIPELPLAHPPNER

[3] = molecular target: T2, rhu CD28 (human, UniProt P10747 19-152, limits assumed); assay: SPR, rhu CD28 analyte, 1:1 model
T2 construct: also called CD28 (SPR analyte)

[4] = molecular target: T3, human CTLA-4 on CHO cells (human, UniProt P16410 36-223); assay: flow cytometry, CHO/CTLA-4 cells
T3 construct: whole, on cells; also called CHO/CTLA-4
T3 sequence (P16410 36-223): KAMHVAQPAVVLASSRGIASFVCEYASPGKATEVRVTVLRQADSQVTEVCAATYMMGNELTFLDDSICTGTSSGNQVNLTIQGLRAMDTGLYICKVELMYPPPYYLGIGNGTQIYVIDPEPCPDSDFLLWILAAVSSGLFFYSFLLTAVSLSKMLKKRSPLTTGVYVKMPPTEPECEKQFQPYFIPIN
Procedure: (§1) Binding affinity to CD28 was determined using primary human T cells which endogenously express CD28. Binding to PD-L1 was determined using SCC152 cells transduced with human PD-L1. Binding to CTLA-4 was measured using Chinese hamster ovary (CHO) cells stably transduced to express human CTLA-4.
(§2) For staining and analysis by flow cytometry, 75,000 human T cells, SCC152/PD-L1 cells, or CHO/CTLA-4 cells were plated in 96-well round-bottom plates. Cells were spun down and resuspended in staining buffer (PBS (phosphate buffered saline), 1% BSA (bovine serum albumin), 1 mM EDTA, and 0.1% sodium azide) for 20 minutes to block non-specific binding. Afterwards, cells were centrifuged, stain buffer aspirated, and then resuspended in 50 μL of a 1:5 serial dilution of each CD80-Fc candidate variant starting at 100 nM ending at 0.8 nM. Primary staining was performed on ice for 60 minutes, before washing cells in […] staining buffer three times. PE-conjugated anti-human Fc (Jackson ImmunoResearch, USA) was diluted 1:250 in 50 μL staining buffer and added to cells and incubated another 30 minutes at 4° C. Cells were washed two times in 150 μL stain buffer and then fixed in 2% formaldehyde/PBS for 5 minutes at room temperature. Samples were analyzed CytoFLEX LX flow cytometer (Beckman Coulter, USA). Median Fluorescence Intensity (MFI) was calculated for each cell type using the CytExpert software from Beckman Coulter.
(§3) Binding assays were carried out to assess the specificity and affinity of multivalent proteins to cell-expressed CTLA-4, CD28, and PD-L1 counter structures.

[5] = molecular target: T4, human CD28 on cells (human, UniProt P10747 19-220); assay: cell-based or functional assay
[6] = molecular target: T4, human CD28 on cells; assay: flow cytometry, primary human T cells
Procedure: as §1, §2, §3

Complex half-life [1]: 96.9 s
koff [1]: 0.007 s⁻¹
B1: CD80_184-Fc (Fc fusion)
chain: VIHVTKEVKEYATLSCGHNVSVEELQQTRIYWQKEKKMVLTMMSGDLNIWPEYKNRTIFDITNNLSIVILGLRPSDEGTYECVVLKREKDAFKREHLAEVTLSVKADGSGGGGS[omitted - human IgG4 Fc with S228P (EU numbers)]
notes: Variant CD80 IgV-GSGGGGS-human IgG4 Fc (S228P); also called V11Y, A26Q, M47L, A71G, Y87R

Kd [2]: 265 nM
koff [2]: 0.0038 s⁻¹
kon [2]: 14300 M⁻¹ s⁻¹
Kd [3]: 87.4 nM
koff [3]: 0.00601 s⁻¹
kon [3]: 68800 M⁻¹ s⁻¹
Complex half-life [1]: 42.2 s
koff [1]: 0.016 s⁻¹
B2: CD80_233-Fc (Fc fusion)
chain: B1 chain with Q26A, T28Y, V68M, G71A, R87Y
notes: Variant CD80 IgV-GSGGGGS-human IgG4 Fc (S228P); also called V11Y, T28Y, M47L, V68M

Complex half-life [1]: 37.8 s
koff [1]: 0.018 s⁻¹
B3: CD80_241-Fc (Fc fusion)
chain: B1 chain with E10S, Y11F, Q26A, T28Y, G71A, R87Y
notes: Variant CD80 IgV-GSGGGGS-human IgG4 Fc (S228P); also called E10S, V11F, T28Y, M47L

Kd [2]: 35.1 nM
koff [2]: 0.00581 s⁻¹
kon [2]: 166000 M⁻¹ s⁻¹
Kd [3]: 4.42 nM
koff [3]: 0.00032 s⁻¹
kon [3]: 72400 M⁻¹ s⁻¹
B4: CD80_236-Fc (Fc fusion)
chain: B1 chain with Q26A, T28Y, R87Y
notes: Variant CD80 IgV-GSGGGGS-human IgG4 Fc (S228P); also called V11Y, T28Y, M47L, A71G

Anti-Human Fc (MFI) at 0.8 nM [4]: 236000 MFI
Anti-Human Fc (MFI) at 4 nM [4]: 318000 MFI
Anti-Human Fc (MFI) at 20 nM [4]: 318000 MFI
Anti-Human Fc (MFI) at 100 nM [4]: 353000 MFI
fold change vs WT CD80 @20 nM [4]: 0.38 fold
Fold Increase over WT at 50 nM [5]: 5.6 fold
Rel. Luminescence Units (RLU) at 2 nM, K562/OKT3/PD-L1 + Jurkat/IL-2 reporter [5]: 12900 RLU
Rel. Luminescence Units (RLU) at 10 nM, K562/OKT3/PD-L1 + Jurkat/IL-2 reporter [5]: 13200 RLU
Rel. Luminescence Units (RLU) at 50 nM, K562/OKT3/PD-L1 + Jurkat/IL-2 reporter [5]: 13700 RLU
Rel. Luminescence Units (RLU) at 250 nM, K562/OKT3/PD-L1 + Jurkat/IL-2 reporter [5]: 12900 RLU
Anti-Human Fc (MFI) at 0.8 nM [6]: 1660 MFI
Anti-Human Fc (MFI) at 4 nM [6]: 3080 MFI
Anti-Human Fc (MFI) at 20 nM [6]: 3600 MFI
Anti-Human Fc (MFI) at 100 nM [6]: 3640 MFI
fold change vs WT CD80 @20 nM [6]: 20 fold
B5: CD80-CD80-Fc_340 (Fc fusion)
chain: VIHVTKEVKEYATLSCGHNVSVEELAQYRIYWQKEKKMVLTMMSGDLNIWPEYKNRTIFDITNNLSIVILALRPSDEGTYECVVLKYEKDAFKREHLAEVTLSVKADGGGGSGGGGSGGGGSVIHVTKEVKEYATLSCGYNVSVEELAQYRIYWQKEKKMVLTMMSGDLNIWPEYKNRTIFDITNNLSIVILALRPSDEGTYECVVLKYEKDAFKREHLAEVTLSVKADGSGGGGS[omitted - human IgG4 Fc with S228P (EU numbers)]
notes: Tetravalent after Fc dimerization; also called tandem CD80_185/CD80_416

Anti-Human Fc (MFI) at 0.8 nM [4]: 163000 MFI
Anti-Human Fc (MFI) at 4 nM [4]: 217000 MFI
Anti-Human Fc (MFI) at 20 nM [4]: 353000 MFI
Anti-Human Fc (MFI) at 100 nM [4]: 358000 MFI
fold change vs WT CD80 @20 nM [4]: 0.43 fold
Fold Increase over WT at 50 nM [5]: 6.19 fold
Rel. Luminescence Units (RLU) at 2 nM, K562/OKT3/PD-L1 + Jurkat/IL-2 reporter [5]: 11800 RLU
Rel. Luminescence Units (RLU) at 10 nM, K562/OKT3/PD-L1 + Jurkat/IL-2 reporter [5]: 14600 RLU
Rel. Luminescence Units (RLU) at 50 nM, K562/OKT3/PD-L1 + Jurkat/IL-2 reporter [5]: 15100 RLU
Rel. Luminescence Units (RLU) at 250 nM, K562/OKT3/PD-L1 + Jurkat/IL-2 reporter [5]: 16100 RLU
Anti-Human Fc (MFI) at 0.8 nM [6]: 611 MFI
Anti-Human Fc (MFI) at 4 nM [6]: 1650 MFI
Anti-Human Fc (MFI) at 20 nM [6]: 2970 MFI
Anti-Human Fc (MFI) at 100 nM [6]: 3690 MFI
fold change vs WT CD80 @20 nM [6]: 16.5 fold
B6: CD80-CD80-Fc_342 (Fc fusion)
chain: B5 chain with Y28T, E35D, L47M, Y87Q, T101R, Y150T, E157D, L169M, Y209Q, T223R
notes: also called tandem CD80_197

Anti-Human Fc (MFI) at 0.8 nM [4]: 209000 MFI
Anti-Human Fc (MFI) at 4 nM [4]: 205000 MFI
Anti-Human Fc (MFI) at 20 nM [4]: 332000 MFI
fold change vs WT CD80 @20 nM [4]: 0.4 fold
Fold Increase over WT at 50 nM [5]: 5.18 fold
Rel. Luminescence Units (RLU) at 2 nM, K562/OKT3/PD-L1 + Jurkat/IL-2 reporter [5]: 11600 RLU
Rel. Luminescence Units (RLU) at 10 nM, K562/OKT3/PD-L1 + Jurkat/IL-2 reporter [5]: 12800 RLU
Rel. Luminescence Units (RLU) at 50 nM, K562/OKT3/PD-L1 + Jurkat/IL-2 reporter [5]: 12600 RLU
Rel. Luminescence Units (RLU) at 250 nM, K562/OKT3/PD-L1 + Jurkat/IL-2 reporter [5]: 11800 RLU
Anti-Human Fc (MFI) at 0.8 nM [6]: 1530 MFI
Anti-Human Fc (MFI) at 4 nM [6]: 3080 MFI
Anti-Human Fc (MFI) at 20 nM [6]: 3420 MFI
Anti-Human Fc (MFI) at 100 nM [6]: 3870 MFI
fold change vs WT CD80 @20 nM [6]: 19 fold
B7: CD80-CD80-Fc_337 (Fc fusion)
chain: B5 chain with E10G, Y11W, E132G, Y133W
notes: Tetravalent after Fc dimerization; also called tandem CD80_180/CD80_415
